# According to the supplement of paper PMC10126150:
# Values marked as one replicate rest on one cluster of the flow cell; about a third of the high ones do not repeat.
# System: ATP
# Assay: switch fluorescence ratio, 500 uM ATP over buffer (Cy3 cluster intensity, sum of 5 cycles each) (fold (ratio)); higher = stronger signal-on switching upon ATP binding; sequences stand for … in TCGTCGGCAGCGTCAGATGTGTATAAGAGACAGTTTTTTTTTTTTTTTTTTTTTTTTT…TC
# Settings: aptamer strand: ATP DNA aptamer (quencher-CACCTGGGGGAGTATTGCGGAGGAAGG + anchor), 100 nM annealed; ATP concentration: 500 uM; one replicate
# Summary of the method: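 The quencher-labelled ATP aptamer, at 100 nM, was annealed to Cy3-labelled switching-strand clusters on a modified Illumina MiSeq flow-cell. The clusters were imaged in selection buffer, then after 15 min with 500 uM ATP at 22 °C, and this buffer/ATP cycle ran five times with NaOH stripping and re-annealing between runs. Per-cluster fluorescence ratios, summed target-cycle over summed buffer-cycle Cy3 intensity, were averaged per switch-domain sequence. Clusters outside 100-1000 RFU were excluded.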
# 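Also: ATP exposure 15 min at 22 °C before imaging.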
row,Sequence,switch fluorescence ratio
1,CGCGCGATAT,1.12
2,TGCGAGAGTA,0.991
3,GTACTTACTA,1.19
4,GTAGTATGTG,0.996
5,CATTCATACT,1.04
6,TGAAAGTTAA,1.34
7,TTGGAGAATC,1
8,GCAGGAGTCG,0.978
9,GAAAGATTTA,0.99
10,CCGGTGCCGC,1.08
11,CGGCTTACCG,0.965
12,AGCGTATTAG,1.02
13,TCTCAGGGAC,1.11
14,AGAGGGATTT,0.992
15,CCATGTCGA,1.01
16,AGCATTAGGG,0.987
17,ATCTTATGT,0.99
18,CTATCTATA,1.03
19,ATGATTGTCA,0.997
20,GATTTCAAGT,0.957
21,CTAGTCTAAG,0.984
22,GACGCCTCTG,1.04
23,CCACCTACTG,1.67

row,Sequence,switch fluorescence ratio
1,GAGCGGCAGA,0.992
2,CGGTCTCTGT,1.03
3,CTGCGAAATA,1.39
4,TTATTTTAGA,0.968
5,CGACATATAT,1.16
6,TGGTCATG,0.926
7,CCGCCAACTA,2.58
8,AGTATGTCTG,1.12
9,AAGAGTGAGT,1
10,CACGCAGTAT,1.42
11,AGTGTCTCC,1.03
12,TATGGCTAAC,1.15
13,ACTTTTT,0.998
14,TATTCCGGGT,0.994
15,TACAAAGCT,1.09
16,CTGTAGGCTT,1.05
17,GAATAGAAGT,0.969
18,GAGTCGATGG,0.989
19,TGCCTTTTAT,1.01
20,AGAGTGTCAA,0.972
21,TGACAAAGAG,1.04
22,GCTATGGGTC,1.04
23,GCGTTCTCTT,1.01

row,Sequence,switch fluorescence ratio
1,ACATGCGTAT,1.01
2,GGTCGAATCA,0.998
3,GGGGTGT,0.976
4,CTTCGACTCG,1.01
5,AATGTCAGAC,0.925
6,CCGTCTGAGC,1
7,TTTTAGTGC,0.954
8,GAGTGGCCGT,1.06
9,TAAAATGGAT,0.979
10,TTAACCTGAT,1.2
11,GCGTCATAAA,0.975
12,AGACTTCATA,1.01
13,TGTTACACGG,0.954
14,TGTAATCGTG,0.986
15,GTGCAATCTA,1.24
16,GAAAAGCGTC,1
17,GACTTTGCAA,6.22
18,CAGCGGAATC,1.72
19,TCATACCGGA,1
20,ATCGTATCTC,1.1
21,ATAGGACTCC,1.09
22,GAGATTATTC,1.03
23,CGGGACACCA,1.02

row,Sequence,switch fluorescence ratio
1,CTTCACCGCG,1.32
2,CCCCAACCCC,1.33
3,GCGGCGAATT,1
4,GGTCCGTACT,1.05
5,CAATGGGCCC,0.988
6,GCGAGACTAG,1.2
7,TACGCCTGAG,1.04
8,AAAGCTTAAA,1.01
9,ATCGACAACA,1.04
10,GCACCACTGA,1.07
11,TGTGGGACAT,1.03
12,GATCATTACG,1.04
13,GCGCAGGGAC,2.44
14,GCTACGATCA,1.06
15,ACATTTGGG,1
16,GTTGGTCCGG,0.986
17,TTTTTCCTTC,1.12
18,GCGTCCTTTA,1.01
19,TGGAAGGCAT,1.02
20,TCGTTGGCCA,0.999
21,TGTGCAACTA,0.96
22,TAGTCGTAGC,0.982
23,AAAAAATCGA,0.999

row,Sequence,switch fluorescence ratio
1,GCGGTTCTGG,0.968
2,GCTATGTGTT,1.01
3,GGGACATTTC,1.04
4,TATCCGGGAC,1.38
5,TACGTGTTTC,0.985
6,CTCGAAACGC,1.13
7,CCCTTTGTTG,0.992
8,GCTCTGGTCG,1.04
9,TGACTCGACC,1.09
10,GCAGGTTAAT,0.968
11,ACTACCACA,1.3
12,GCAGTGCGGG,1.03
13,GGTCATGGAG,1
14,TTGGCTATAG,1
15,AATCCGAGTG,1.01
16,ATGATTGC,0.988
17,AATATTGGCG,0.946
18,CAGCGGTCGG,0.984
19,CACGACTGCT,1.08
20,CCGCTCCGGC,1.53
21,CGAACGGCTA,1.28
22,TAAGCTAACA,1.03
23,CTGTCATACA,0.988

row,Sequence,switch fluorescence ratio
1,GCTCCACGTC,1.19
2,TATCATTGAT,1.03
3,GCAAGCGTGC,1.01
4,TGCCGCCAGC,1.11
5,AGAGAGACGC,1.13
6,GGCGCTGTAC,1.75
7,AGTTAGCTCG,1.03
8,GCTATTCTCT,0.975
9,CGGTCGATGA,0.955
10,TACCTACCGA,1.56
11,CTTGAGGTTT,0.984
12,CCTTGCTCTG,2.8
13,AACTTGAGTT,0.995
14,TTCTCAGGCG,1.02
15,CAAAGGGAAT,1.02
16,GTGTATGGAC,0.978
17,ACTTCGGGGT,1.07
18,CGGATTGTC,0.994
19,CCATTGTTTC,1
20,CATACTCTAG,1.07
21,TGAGTTGACA,1.02
22,TACGCCCCTT,1.72
23,GTATTCACAA,1.02

row,Sequence,switch fluorescence ratio
1,GTGAAGTAAC,1.01
2,TCTCAAAAGC,1.27
3,ACCATGGGTC,1.05
4,GCCAATTGTA,0.965
5,CTAATAATGT,0.973
6,AGACTTCTGC,0.958
7,GTTAAATTGA,0.988
8,CGGGCCAAG,0.919
9,ATATCCGACG,1.34
10,ACACCGATTT,1.06
11,AGATTGCTGC,1.03
12,CGTACCAGC,1.01
13,TCCAATACGA,4.29
14,GAGAACAGT,0.981
15,GAGGGGCGAG,1.01
16,AGTACGGATG,0.983
17,ATAGCGATGG,1.31
18,AAGAGTTCTA,1.04
19,TGAGGTCAAC,0.989
20,GCCACAAAGA,1.01
